{
  "source": "a collection of fitness landscapes (doi:10.1126/science.1257360)",
  "parents": {"B1": {"name": "PhoQ; a variant is named by its letters at X, in order, P23837 (parent)", "chain": "MKKLLRLFFPLSLRVRFLLATAAVVLVLSLAYGMVALIGYSVSFDKTTFRLLRGESNLFYTLAKWENNKLHVELPENIDKQSPTMTLIYDENGQLLWAQRDVPWLMKMIQPDWLKSNGFHEIEADVNDTSLLLSGDHSIQQQLQEVREDDDDAEMTHSVAVNVYPATSRMPKLTIVVVDTIPVELKSSYMVWSWFIYVLSANLLLVIPLLWVAAWWSLRPIEALAKEVRELEEHNRELLNPATTRELTSLVRNLNRLLKSERERYDKYRTTLTDLTHSLKTPLXXLQXXLRSLRSEKMSVSDAEPVMLEQISRISQQIGYYLHRASMRGGTLLSRELHPVAPLLDNLTSALNKVYQRKGVNISLDISPEISFVGEQNDFVEVMGNVLDNACKYCLEFVEISARQTDEHLYIVVEDDGPGIPLSKREVIFDRGQRVDTLRPGQGVGLAVAREITEQYEGKIVAGESMLGGARMEVIFGRQHSAPKDE"}},
  "note": "Some of the results follow.",
  "data": [
    {"variants_of": "B1", "test": "enrichment ratio after two sorts for PhoP signalling (ratio (wild type AVST 3.29)); higher = more functional", "details": "with PhoP (E. coli)", "values": [
      {"variant": "AFWH", "enrichment ratio": "≤ 0.25"},
      {"variant": "VWYT", "enrichment ratio": "≤ 0.25"},
      {"variant": "QHIP", "enrichment ratio": "≤ 0.25"},
      {"variant": "EGTY", "enrichment ratio": "≤ 0.25"},
      {"variant": "NDEA", "enrichment ratio": "≤ 0.25"},
      {"variant": "LLAT", "enrichment ratio": "≤ 0.25"},
      {"variant": "MPCN", "enrichment ratio": "≤ 0.25"},
      {"variant": "SDGR", "enrichment ratio": "≤ 0.25"},
      {"variant": "QLFC", "enrichment ratio": "≤ 0.25"},
      {"variant": "LKWY", "enrichment ratio": "≤ 0.25"},
      {"variant": "KFGD", "enrichment ratio": "≤ 0.25"},
      {"variant": "GYFK", "enrichment ratio": "≤ 0.25"},
      {"variant": "NIYA", "enrichment ratio": "≤ 0.25"},
      {"variant": "LPFM", "enrichment ratio": 0.322},
      {"variant": "KGSM", "enrichment ratio": "≤ 0.25"},
      {"variant": "QSYS", "enrichment ratio": 7.02},
      {"variant": "NREC", "enrichment ratio": "≤ 0.25"},
      {"variant": "APHM", "enrichment ratio": "≤ 0.25"},
      {"variant": "HAQR", "enrichment ratio": "≤ 0.25"},
      {"variant": "WYGN", "enrichment ratio": "≤ 0.25"},
      {"variant": "SDWD", "enrichment ratio": "≤ 0.25"},
      {"variant": "SIFW", "enrichment ratio": "≤ 0.25"},
      {"variant": "MIRF", "enrichment ratio": "≤ 0.25"},
      {"variant": "MSQG", "enrichment ratio": "≤ 0.25"},
      {"variant": "EPIY", "enrichment ratio": "≤ 0.25"},
      {"variant": "ESWR", "enrichment ratio": "≤ 0.25"},
      {"variant": "WVFK", "enrichment ratio": "≤ 0.25"},
      {"variant": "SIYA", "enrichment ratio": 0.309},
      {"variant": "IKNQ", "enrichment ratio": "≤ 0.25"},
      {"variant": "LGEL", "enrichment ratio": "≤ 0.25"},
      {"variant": "FHNG", "enrichment ratio": 0.618},
      {"variant": "LMSD", "enrichment ratio": "≤ 0.25"},
      {"variant": "DMIR", "enrichment ratio": "≤ 0.25"},
      {"variant": "HSLK", "enrichment ratio": "≤ 0.25"},
      {"variant": "QPIS", "enrichment ratio": "≤ 0.25"},
      {"variant": "CDYS", "enrichment ratio": "≤ 0.25"},
      {"variant": "DGAN", "enrichment ratio": "≤ 0.25"},
      {"variant": "ELYC", "enrichment ratio": "≤ 0.25"},
      {"variant": "KKIG", "enrichment ratio": "≤ 0.25"},
      {"variant": "PRSP", "enrichment ratio": "≤ 0.25"},
      {"variant": "RGVW", "enrichment ratio": "≤ 0.25"},
      {"variant": "RDNM", "enrichment ratio": "≤ 0.25"},
      {"variant": "EIYK", "enrichment ratio": "≤ 0.25"},
      {"variant": "WRAL", "enrichment ratio": "≤ 0.25"},
      {"variant": "PYHT", "enrichment ratio": "≤ 0.25"},
      {"variant": "QAIL", "enrichment ratio": "≤ 0.25"},
      {"variant": "TCPK", "enrichment ratio": "≤ 0.25"},
      {"variant": "KDQY", "enrichment ratio": "≤ 0.25"},
      {"variant": "YYGA", "enrichment ratio": "≤ 0.25"},
      {"variant": "YATT", "enrichment ratio": "≤ 0.25"},
      {"variant": "MRPH", "enrichment ratio": "≤ 0.25"},
      {"variant": "QKTS", "enrichment ratio": "≤ 0.25"},
      {"variant": "FIKQ", "enrichment ratio": "≤ 0.25"},
      {"variant": "FPEV", "enrichment ratio": "≤ 0.25"},
      {"variant": "FYDT", "enrichment ratio": "≤ 0.25"},
      {"variant": "TTPR", "enrichment ratio": "≤ 0.25"},
      {"variant": "FVCT", "enrichment ratio": "≤ 0.25"},
      {"variant": "WFAD", "enrichment ratio": "≤ 0.25"},
      {"variant": "NDCC", "enrichment ratio": "≤ 0.25"},
      {"variant": "RCMK", "enrichment ratio": "≤ 0.25"},
      {"variant": "MLTD", "enrichment ratio": "≤ 0.25"},
      {"variant": "IDSM", "enrichment ratio": "≤ 0.25"},
      {"variant": "PMNG", "enrichment ratio": "≤ 0.25"},
      {"variant": "KPIL", "enrichment ratio": "≤ 0.25"},
      {"variant": "PIQQ", "enrichment ratio": "≤ 0.25"},
      {"variant": "AKMW", "enrichment ratio": "≤ 0.25"},
      {"variant": "RKVN", "enrichment ratio": "≤ 0.25"},
      {"variant": "YHGN", "enrichment ratio": "≤ 0.25"},
      {"variant": "QMPL", "enrichment ratio": "≤ 0.25"},
      {"variant": "LCHS", "enrichment ratio": "≤ 0.25"},
      {"variant": "VTCV", "enrichment ratio": "≤ 0.25"},
      {"variant": "LFHD", "enrichment ratio": "≤ 0.25"},
      {"variant": "QKHF", "enrichment ratio": "≤ 0.25"},
      {"variant": "WPRP", "enrichment ratio": "≤ 0.25"},
      {"variant": "GCSK", "enrichment ratio": "≤ 0.25"},
      {"variant": "VSMI", "enrichment ratio": 7.55},
      {"variant": "HPWD", "enrichment ratio": "≤ 0.25"},
      {"variant": "FRVV", "enrichment ratio": "≤ 0.25"},
      {"variant": "PMEN", "enrichment ratio": "≤ 0.25"},
      {"variant": "KNVI", "enrichment ratio": "≤ 0.25"},
      {"variant": "NAMI", "enrichment ratio": "≤ 0.25"},
      {"variant": "SVCY", "enrichment ratio": 6.53},
      {"variant": "GHMV", "enrichment ratio": "≤ 0.25"},
      {"variant": "VCGW", "enrichment ratio": "≤ 0.25"},
      {"variant": "WSMF", "enrichment ratio": "≤ 0.25"},
      {"variant": "WLGA", "enrichment ratio": "≤ 0.25"},
      {"variant": "LITI", "enrichment ratio": "≤ 0.25"},
      {"variant": "DICF", "enrichment ratio": "≤ 0.25"},
      {"variant": "RPFN", "enrichment ratio": "≤ 0.25"},
      {"variant": "SGRQ", "enrichment ratio": "≤ 0.25"},
      {"variant": "HRYQ", "enrichment ratio": "≤ 0.25"},
      {"variant": "AKRG", "enrichment ratio": "≤ 0.25"},
      {"variant": "FQPL", "enrichment ratio": "≤ 0.25"},
      {"variant": "YMMQ", "enrichment ratio": "≤ 0.25"},
      {"variant": "HCAM", "enrichment ratio": "≤ 0.25"},
      {"variant": "PWCK", "enrichment ratio": "≤ 0.25"},
      {"variant": "IKLE", "enrichment ratio": "≤ 0.25"},
      {"variant": "TFAI", "enrichment ratio": 5.05},
      {"variant": "SQGV", "enrichment ratio": 7.29},
      {"variant": "VFCA", "enrichment ratio": "≤ 0.25"},
      {"variant": "HDSA", "enrichment ratio": "≤ 0.25"},
      {"variant": "RDYA", "enrichment ratio": "≤ 0.25"},
      {"variant": "GFGP", "enrichment ratio": "≤ 0.25"},
      {"variant": "NIHG", "enrichment ratio": "≤ 0.25"},
      {"variant": "WMYS", "enrichment ratio": "≤ 0.25"},
      {"variant": "VWQI", "enrichment ratio": "≤ 0.25"},
      {"variant": "LSNK", "enrichment ratio": "≤ 0.25"},
      {"variant": "EGGL", "enrichment ratio": "≤ 0.25"},
      {"variant": "NQRL", "enrichment ratio": "≤ 0.25"},
      {"variant": "MCPF", "enrichment ratio": "≤ 0.25"},
      {"variant": "HREM", "enrichment ratio": "≤ 0.25"},
      {"variant": "LAGK", "enrichment ratio": "≤ 0.25"},
      {"variant": "VWKT", "enrichment ratio": "≤ 0.25"},
      {"variant": "RCSY", "enrichment ratio": "≤ 0.25"},
      {"variant": "QLLY", "enrichment ratio": "≤ 0.25"},
      {"variant": "ASGD", "enrichment ratio": "≤ 0.25"},
      {"variant": "TWGV", "enrichment ratio": "≤ 0.25"},
      {"variant": "PADW", "enrichment ratio": "≤ 0.25"},
      {"variant": "ADAP", "enrichment ratio": "≤ 0.25"},
      {"variant": "TISY", "enrichment ratio": 3.76},
      {"variant": "EPLT", "enrichment ratio": "≤ 0.25"},
      {"variant": "PGMF", "enrichment ratio": "≤ 0.25"},
      {"variant": "FYHF", "enrichment ratio": "≤ 0.25"},
      {"variant": "VLWF", "enrichment ratio": "≤ 0.25"},
      {"variant": "AGMT", "enrichment ratio": 1.71},
      {"variant": "PYPG", "enrichment ratio": "≤ 0.25"},
      {"variant": "YRPM", "enrichment ratio": "≤ 0.25"},
      {"variant": "VSVC", "enrichment ratio": "≤ 0.25"},
      {"variant": "YVID", "enrichment ratio": "≤ 0.25"},
      {"variant": "LSGD", "enrichment ratio": "≤ 0.25"},
      {"variant": "IKCM", "enrichment ratio": "≤ 0.25"},
      {"variant": "TEVR", "enrichment ratio": "≤ 0.25"},
      {"variant": "EICG", "enrichment ratio": "≤ 0.25"},
      {"variant": "VYMR", "enrichment ratio": "≤ 0.25"},
      {"variant": "MSIH", "enrichment ratio": "≤ 0.25"},
      {"variant": "AIAM", "enrichment ratio": 6.08},
      {"variant": "GRFD", "enrichment ratio": "≤ 0.25"},
      {"variant": "DLDA", "enrichment ratio": "≤ 0.25"},
      {"variant": "NFHS", "enrichment ratio": "≤ 0.25"},
      {"variant": "GSDW", "enrichment ratio": "≤ 0.25"},
      {"variant": "YGMK", "enrichment ratio": "≤ 0.25"},
      {"variant": "AVIF", "enrichment ratio": 1.01},
      {"variant": "KEFS", "enrichment ratio": "≤ 0.25"},
      {"variant": "GGCF", "enrichment ratio": 0.283},
      {"variant": "MALE", "enrichment ratio": 10.7},
      {"variant": "DYNC", "enrichment ratio": "≤ 0.25"},
      {"variant": "YMDW", "enrichment ratio": "≤ 0.25"},
      {"variant": "SSEY", "enrichment ratio": "≤ 0.25"},
      {"variant": "IKLA", "enrichment ratio": "≤ 0.25"},
      {"variant": "FVSF", "enrichment ratio": "≤ 0.25"},
      {"variant": "LYHH", "enrichment ratio": "≤ 0.25"},
      {"variant": "LRSV", "enrichment ratio": "≤ 0.25"},
      {"variant": "RDCH", "enrichment ratio": "≤ 0.25"}
    ]}
  ]
}
